Out of some 45,000 compounds screened, about 65 (0.1%) were called active. The call rests on the fitted dose curve; in most records, active means well fitted activation curve with a large enough effect; inconclusive means small, poorly fitted or top-dose-only effect; inactive means no such curve, though single readings can be large or run the other way. The list shows a part of the results.

This assay has as its target Galactocerebrosidase (Homo sapiens) (UniProt P54803). Put plainly: A Novel Cell-Based Assay to Identify Small Molecules for B -Galactocerebrosidase. Further: 0% is about no effect; nearly all actives have a fitted effect of over 65% in size. The following applies: 145M-Twi-hGALC-G270D cells, HMU-beta-Gal fluorescence, 48 h; series mostly up to 57.5 µM; activation: at the top concentration. Summed up: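 qHTS, 1536-well; 145M-Twi-hGALC-G270D cells (WT line also made) in DMEM/F12 + 10% FBS; compound incubation on live cells; HMU-β-gal 0.1 mM final, pH 5.2, NaTC; carbonate stop; fluorescence increase = enhanced residual activity.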
Chain of UniProt P54803 (P54803 whole entry, looked up): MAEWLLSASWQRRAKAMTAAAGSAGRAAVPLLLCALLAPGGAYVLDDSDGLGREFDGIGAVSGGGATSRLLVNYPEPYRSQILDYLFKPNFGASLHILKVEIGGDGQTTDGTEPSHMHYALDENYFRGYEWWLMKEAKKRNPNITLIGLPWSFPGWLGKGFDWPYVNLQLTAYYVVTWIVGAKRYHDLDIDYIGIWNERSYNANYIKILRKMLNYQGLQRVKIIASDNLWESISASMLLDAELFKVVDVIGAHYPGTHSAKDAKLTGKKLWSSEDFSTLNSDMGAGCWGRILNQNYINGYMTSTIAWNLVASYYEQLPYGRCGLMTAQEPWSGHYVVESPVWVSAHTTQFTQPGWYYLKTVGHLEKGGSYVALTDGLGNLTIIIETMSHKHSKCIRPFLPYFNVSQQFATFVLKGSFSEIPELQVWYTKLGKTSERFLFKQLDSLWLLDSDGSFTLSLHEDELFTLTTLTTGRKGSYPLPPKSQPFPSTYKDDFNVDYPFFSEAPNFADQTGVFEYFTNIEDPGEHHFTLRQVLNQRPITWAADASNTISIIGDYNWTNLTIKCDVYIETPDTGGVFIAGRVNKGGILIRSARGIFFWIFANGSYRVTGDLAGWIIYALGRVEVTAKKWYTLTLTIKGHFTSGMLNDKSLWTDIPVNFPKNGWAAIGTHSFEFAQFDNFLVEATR
Consider `CCCCCSc1nnc2c(n1)OC(c1ccc(C)s1)N(C(C)=O)c1ccccc1-2` (centres undefined), for which the “activation” value was inactive: -31.5%. The result for `Cc1c(Cl)cccc1N1CC(c2nc3ccccc3n2Cc2ccccc2F)CC1=O` (centres undefined) reads inactive: -14.9%; that for `Oc1ccccc1-c1nc(/C=C/c2ccc(F)cc2)no1`, inactive: -20%; that for `Cc1cccc(N2CCN(C(=O)Nc3ccc(F)cc3)CC2C)c1` (centres undefined), inactive: -23.7%. The result for `Cc1ccccc1NC(=O)Nc1nnc(N(C)Cc2ccccc2)s1` reads inactive: -9.63%; that for `COc1ccccc1NC(=O)CN1C(=O)C(c2ccc(F)cc2)=NC1(C)C`, inactive: -8.87%; that for `Cc1c(CNCCCc2ccccc2)c(C(=O)O)c(C)n1Cc1ccc(Cl)cc1`, inactive: -7.11%. As for `O=c1c2oc3ccccc3c2n(Cc2ccccc2F)c(=O)n1Cc1ccco1`, the “activation” value is inactive: -12.7%. As to `CCOC(=O)NNc1nncc2ccccc12`, the “activation” value was inactive: -35.9%. Under `Cc1cc(=O)[nH]c2nnc(SCc3cccc(F)c3)n12` stands inactive: -35.1%. Turning to `Cc1ccc(Cn2cc(CCC(=O)NC3CCCCC3)c3ccccc32)cc1`, the “activation” value is inactive: 0.741%. The result for `CCOc1ccc(-c2ccc(NS(=O)(=O)c3cc(C)ccc3OC)cc2)nn1` reads inactive: -2.47%; that for `Cc1ccc(N2CCN(C(=O)c3nn(C)c4c3CS(=O)(=O)c3ccccc3-4)CC2C)cc1` (centres undefined), inactive: -7.21%; that for `Cc1cccc(NC(=O)Cn2c(=O)n(Cc3ccc4c(c3)OCO4)c(=O)c3ccccc32)c1`, inactive: -2.08%. Turning to `CCS(=O)(=O)c1c(Nc2ccc(F)c(Cl)c2)sc(C(=O)c2ccccc2)c1N`, the “activation” value was inactive: -14.2%.

`COc1ccc(NC(=O)Cn2c(=O)oc3cc(S(=O)(=O)NC(C)C)ccc32)cc1OC`: the “activation” value is inactive: -7.88%. As to `CCOc1ccc(C(=O)c2cn(CC(=O)Nc3cc(OC)cc(OC)c3)c3ccc(F)cc3c2=O)cc1`, the “activation” value is inactive: 10.7%. The result for `Cc1cccc(NC(=O)Cn2c(=O)n(Cc3ccc(C(=O)NCc4ccc5c(c4)OCO5)cc3)c(=O)c3ccccc32)c1` reads inactive: -17.7%; that for `Cc1ccc(NC(=O)CSc2nc(-c3ccc(F)cc3)cc(C(F)(F)F)c2C#N)cc1`, inactive: -13.5%. The result for `O=C(CCn1c(=O)c2cccn2c2ccc(F)cc21)NCc1ccccc1F` reads inactive: -13.6%. Take `CCNC(=O)CC1C(=O)N(c2ccccc2)C(=O)N1Cc1ccc(F)cc1` (centres undefined): the “activation” value was inactive: 0.236%. Consider `CCCSCCCNC(=O)C1CCN(C(=O)c2cc3sccc3n2C)CC1`, for which the “activation” value was inactive: -5.49%. As to `COc1ccccc1N1CCN(S(=O)(=O)c2ccc3c(c2)oc(=O)n3C)CC1`, the “activation” value was inactive: -15.4%. The result for `Cc1nnc(N2CCC(C(=O)NC(C)C)CC2)c2nn(-c3ccc(Cl)cc3)c(C)c12` reads inactive: -5.31%; that for `Cc1ccccc1Cn1c(CCCNC(=O)C2CCCCC2)nc2ccccc21`, inactive: 1.3%; that for `Cc1cccc(OCc2nnc(SCC(=O)Nc3ccc(C)cc3C)o2)c1`, inactive: -3.92%. The result for `Cc1ccccc1Cn1c(SCc2ccc(C(=O)NCc3cccs3)cc2)nc2ccncc21` reads inactive: -16.1%; that for `COc1ccc(S(=O)(=O)N(Cc2nc(-c3cccc(C)c3)no2)C2CCCCC2)cc1`, inactive: -19.3%. With `Cc1c2cnn(CC(=O)NCc3ccccc3)c(=O)c2c(C)n1Cc1cccc(Cl)c1`, the “activation” value was inactive: -20.5%.

For the compound `CC(=O)c1cccc(NC(=O)Cn2c(SCC(=O)Nc3ccc(F)cc3)nc3ccccc32)c1`, the “activation” value is inactive: -24.8%. The result for `CCOc1ccc(-n2c(C)nc3c(cnn3-c3ccc(C)cc3)c2=O)cc1` reads inactive: -18.6%; that for `CCC1CCCCN1S(=O)(=O)c1ccc(NC(=O)c2cc(=O)c3ccccc3o2)cc1` (centres undefined), inactive: -13.2%.

For the compound `CCN(CCCNC(=O)c1cc2c(=O)[nH]c3ccccc3c2s1)c1ccccc1`, the “activation” value was inactive: -20.4%. For the compound `CCCCOc1ccc(C2c3c(-c4ccccc4O)n[nH]c3C(=O)N2Cc2ccncc2)cc1OC` (centres undefined), the “activation” value was inactive: -24.4%. The result for `O=C(Nc1nc(-c2ccc(Br)cc2)ns1)c1ccc(F)cc1` reads inactive: -36.2%; that for `O=S(=O)(c1ccc(-n2cnnn2)cc1)N1CCN(c2ccccc2F)CC1`, inactive: -9.81%.

As to `COc1ccc(CCN2C(=O)N(c3ccc(F)cc3)C(=O)C2CC(=O)Nc2ccccc2)cc1` (centres undefined), the “activation” value was inactive: -11.5%. The result for `N#C/C(=C\c1ccc(Cl)cc1)C(=O)NCC1CCCO1` (centres undefined) reads inactive: 10.1%; that for `Cn1cc(S(=O)(=O)c2ccccc2)c(=O)c2cc(F)c(N3CCOCC3)cc21`, inactive: -14.5%. The result for `COc1ccc(-c2c(C#N)c(SCC(=O)Nc3ccccc3C)nc(C)c2C(=O)Nc2ccccc2)cc1OC` reads inactive: 4.34%; that for `O=C(CN1CCN(Cc2ccccc2Cl)C1=O)NCc1ccccc1Cl`, inactive: -14.5%; that for `COCCCNC(=O)CSc1nc(-c2cccc(F)c2)[nH]c1-c1ccccc1`, inactive: -12.7%. For the compound `COc1cccc(CNCCSc2nnnn2C)c1OCc1ccc(Cl)cc1Cl`, the “activation” value is inactive: -4.45%. Under `COc1ccccc1CNC(=O)Cn1c(=O)oc2cc(S(=O)(=O)N3CCC(C)CC3)ccc21` stands inactive: -12.9%. The result for `COc1ccccc1NC(=O)CSc1ccc(-c2sc(C)nc2C)nn1` reads inactive: -13.7%; that for `Cc1cccc(-c2nc(CCNC(=O)Cc3ccc(F)cc3)cs2)c1`, inactive: -8.98%. As to `CCC(Nc1ccc(-c2nc(-c3ccco3)no2)cc1[N+](=O)[O-])c1ccccc1` (centres undefined), the “activation” value is inactive: -20.6%.

In the case of `CCc1cnc2c(c1SCC(=O)Nc1ccc(Cl)cc1)c(=O)n(C)c(=O)n2C`, the “activation” value was inactive: -12%.

With `CC(COc1ccccc1)NC(C)C(O)c1ccc(O)cc1` (centres undefined), the “activation” value was inactive: -16.7%.

These data come from PubChem BioAssay AID1159614 (National Center for Advancing Translational Sciences (NCATS), 2016).
